In PubChem BioAssay AID588795 (National Center for Advancing Translational Sciences (NCATS), 2011):
In all, about 390,000 compounds went through this assay and about 1,400 (0.36%) were called active. Inconclusive means that the source gave no clear call. Such entries were picked first, then a sample of the others. Calls follow the shape of the dose curve; as a rule, active = well fitted inhibition curve with a large enough effect; inconclusive = small, poorly fitted or top-dose-only effect; inactive = no such curve, though single readings can be large or run the other way. A potency beside an inconclusive call is a rough fit, not a confirmed value.

What follows are compounds tested against Flap endonuclease 1 (Homo sapiens) (UniProt P39748) (assay: qHTS Assay for the Inhibitors of Human Flap endonuclease 1 (FEN1).). Conditions: Recombinant FEN1 flap cleavage, fluorescence, 15 min; series mostly up to 114 µM; activity change, negative = inhibition: at the top concentration.
Sequence of UniProt P39748 (P39748 whole entry, looked up): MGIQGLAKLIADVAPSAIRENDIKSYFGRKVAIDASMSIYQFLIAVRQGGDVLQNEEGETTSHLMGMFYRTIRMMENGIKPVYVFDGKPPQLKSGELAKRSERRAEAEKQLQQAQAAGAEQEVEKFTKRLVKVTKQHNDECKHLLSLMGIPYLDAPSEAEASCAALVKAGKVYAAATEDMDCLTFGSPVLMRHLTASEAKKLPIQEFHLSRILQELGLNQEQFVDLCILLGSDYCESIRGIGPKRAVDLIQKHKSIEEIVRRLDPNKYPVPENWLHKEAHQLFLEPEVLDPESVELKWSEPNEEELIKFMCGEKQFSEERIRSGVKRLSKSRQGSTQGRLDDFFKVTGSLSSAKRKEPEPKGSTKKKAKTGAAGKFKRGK
Procedure, shortened: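 Potency values derive from four-parameter Hill fits of normalized qHTS data. The reaction used 10 nM FEN1 preincubated 15 min at room temperature with compound, then 50 nM DNA substrate, read at 0 and 15 min.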
% is scaled to controls: 0 for no effect and ±100 for the full control effect; potency is read from the fitted curve at half-maximal effect; tags tell the direction and shape of the fitted curve.
Also: nearly all actives have a fitted effect of over 65% in size.

Compound | Potency | activity change, negative = inhibition
COc1cc2c(ccc3cc(OC)c(OC)c(O)c32)cc1O | active: 22.4 µM | 
CCCOc1ccc(-c2nc(N3CCN(CC)CC3)c3ccccc3n2)cc1 | inconclusive: 31.6 µM [inhibitor, partial curve, poor fit] | 
Cc1nc2c(C(=O)NCCc3ccccc3)c[nH]n2c(=O)c1Cc1ccc(F)cc1Cl | inconclusive: 39.8 µM [inhibitor, partial curve, poor fit] | 
CC(C)(C)C1CCC(C(=O)OCC(=O)c2ccc[nH]2)CC1 (stereo unspecified) |  | inactive: -23.9%
COC(=O)c1ccc(NC(=O)c2cccc(NC(=O)c3ccco3)c2)cc1 |  | inactive: 7.47%
Cc1ccc(CN2[C@H](C)[C@H](c3ccccc3)OCCS2(=O)=O)cc1 | inconclusive: 44.7 µM [inhibitor, partial curve, poor fit] | 
O=C(NCc1ccco1)C1CCCN1C(=O)Nc1ccc(Cl)cc1 (stereo unspecified) | inconclusive: 89.1 µM [inhibitor, partial curve, poor fit] | 
Cc1c(C#N)c(O)[nH]c(=O)c1N=Nc1ccc(Br)cc1C(=O)O | inconclusive: 89.1 µM [inhibitor, single point] | 
O=C(O)c1cc(-c2ccco2)nc2ccccc12 | active: 39.8 µM | 
CC1(C)C([N+](=O)[O-])C(c2ccccc2O)NC(c2ccccc2O)C1[N+](=O)[O-] (stereo unspecified) |  | inactive: -10%
O=c1cc2oc3cc(O)c(O)cc3c(-c3ccccc3O)c-2cc1O | active: 22.4 µM | 
O=S(=O)(Nc1ccc(O)c2ccccc12)c1ccc(F)cc1 | inconclusive: 89.1 µM [inhibitor, single point] | 
COCCN(CC(=O)Nc1cccc(C)c1C)C(=O)c1ccc(S(=O)(=O)N2CCOCC2)cc1 |  | inactive: -1.44%
O=C(N/N=C/c1ccccn1)c1cc(-c2ccc3ccccc3c2)n[nH]1 | active: 44.7 µM | 
Cc1cc(C)n(C(CC(=O)N2CCc3ccccc3C2)C(=O)O)n1 (stereo unspecified) |  | inactive: -0.9%
Cc1ccc(CNC(=O)c2nc(S(=O)(=O)Cc3ccc(C)cc3)ncc2Cl)cc1 |  | inactive: 15.4%
Fc1ccc(N=c2ssnc2Cl)c(F)c1 | inconclusive: 89.1 µM [inhibitor, partial curve, poor fit] | 
O=C1c2cccc3cccc(c23)C(=O)N1OS(=O)(=O)c1ccccc1 | inconclusive: 44.7 µM [inhibitor, partial curve] | 
Cc1ccc(C2CC2/C(=N/O)c2ccc(F)cc2)cc1 (stereo unspecified) | inconclusive: 56.2 µM [inhibitor, partial curve, poor fit] | 
COc1ccc(CNC(=O)c2ccc3c(c2)CCN3S(=O)(=O)c2ccc(Cl)cc2)cc1 |  | inactive: 11.7%
O=[N+]([O-])c1ccc2c(c1)C(=NO)c1cc(F)ccc1-2 | inconclusive: 20 µM [inhibitor, partial curve, poor fit] | 
CCOc1ccccc1Nc1ncnc2c1c(-c1ccccc1)cn2-c1ccc(OC)cc1 |  | inactive: -15.9%

Compound | Potency | activity change, negative = inhibition
C=CC[C@@H](Cc1ccc(F)cc1)C(=O)OC[C@@H]1CCCN1C(=O)[C@@H](CC=C)CC(=O)N(CCO)Cc1ccccc1 | inconclusive: 31.6 µM [inhibitor, single point] | 
CC(=O)Nc1ccc(S(=O)(=O)N(Cc2ccccc2)Cc2ccccc2)cc1 | inconclusive: 39.8 µM [inhibitor, partial curve, poor fit] | 
COc1ccc(CN(C)C(C)C(=O)Nc2ccc(S(=O)(=O)N3CCCCC3)cc2)cc1F (stereo unspecified) | inconclusive: 50.1 µM [inhibitor, partial curve, poor fit] | 
O=Nc1[nH]c(=O)c(/C=C(\O)c2ccccc2)nc1NO | inconclusive: 31.6 µM [inhibitor, full curve] | 
COc1cc(NC(=S)NCCC(c2ccccc2)c2ccccc2)cc(OC)c1 | active: 79.4 µM | 
Cc1ccnc(N=O)c1 | active: 50.1 µM | 
Nc1ccc2c(S(=O)(=O)O)cccc2c1S(=O)(=O)O | inconclusive: 89.1 µM [inhibitor, single point] | 
Nc1c(C(=O)Nc2ccccc2)sc2nc(-c3ccco3)ccc12 | inconclusive: 50.1 µM [inhibitor, partial curve, poor fit] | 
O=C1c2ccccc2[C@@H]2C[C@@H](O)[C@H](Nc3ccccc3-c3ccccc3)CCN12 | inconclusive: 89.1 µM [inhibitor, partial curve, poor fit] | 
CCN(CC)c1ccc2nc3c4ccccc4c(=O)cc-3oc2c1 | inconclusive: 10 µM [inhibitor, full curve, poor fit] | 
CCCCCCC[n+]1ccc(/C=C/c2c(C)[nH]c3ccccc23)cc1 | inconclusive: 79.4 µM [inhibitor, partial curve, poor fit] | 
CCOC(=O)C1=C(O)C(=O)N(Cc2cccnc2)C1c1ccc(C)cc1 (stereo unspecified) | inconclusive: 50.1 µM [inhibitor, partial curve, poor fit] | 
C/C(=N\NC(=O)COc1ccccc1[N+](=O)[O-])c1cccc(NC(=O)c2ccncc2)c1 | inconclusive: 89.1 µM [inhibitor, single point] | 
CCn1cc(C(=O)Nc2ccc(C(C)C)cc2)c2cc(OC)c(OC)cc2c1=O | inconclusive: 39.8 µM [inhibitor, partial curve, poor fit] | 
CSCc1c(C(=O)Nc2ccc(N3CCOCC3)cc2)oc2ccccc12 | inconclusive: 79.4 µM [inhibitor, single point] | 
c1ccc(-c2noc(-c3ccc4ccccc4c3)n2)nc1 |  | inactive: -3.1%
CCCc1c(C(=O)N/N=C(\C)c2ccc(O)cc2)nnn1-c1nonc1N | inconclusive: 89.1 µM [inhibitor, single point] | 
CCCCNC(=O)[C@@](CC)(ONc1ccccc1C(F)(F)F)c1cccc2ccccc12 | inconclusive: 56.2 µM [inhibitor, partial curve, poor fit] | 
Cc1cc(NC2=CC(=O)C(=O)c3ccccc32)no1 |  | inactive: -16.5%
CC1CCCC(NC(=O)CN2C(=O)NC(Cc3c[nH]c4ccccc34)C2=O)C1C (stereo unspecified) | inconclusive: 100 µM [inhibitor, partial curve, poor fit] | 
CC(C)NC[C@@H](O)c1ccc(O)c(O)c1 | inconclusive: 20 µM [inhibitor, single point] | 
O=[N+]([O-])c1ccc(/C=N/NC(=S)Nc2ccccc2)o1 |  | inactive: -12.1%

Compound | Potency | activity change, negative = inhibition
Cc1ccc(S(=O)(=O)N2CCN(c3nc(-c4ccc(CN5CCOCC5)s4)nc4ccccc34)CC2)cc1 |  | inactive: 7.44%
COc1ccccc1CC(=O)O/N=C(\N)Cc1cccc2ccccc12 | inconclusive: 100 µM [inhibitor, partial curve, poor fit] | 
CCc1ccc(C2CC(=O)N3CN(c4ccccc4)CSC3=C2C#N)cc1 (stereo unspecified) | inconclusive: 63.1 µM [inhibitor, partial curve, poor fit] | 
Cc1cc(/C=N/NC(=O)C(O)(c2ccccc2)c2ccccc2)c(C)n1-c1cccc(C(=O)O)c1 | inconclusive: 89.1 µM [inhibitor, single point] | 
O=C(Nc1ccc(Br)cc1)C1OCCc2ccccc21 (stereo unspecified) | inconclusive: 89.1 µM [inhibitor, partial curve, poor fit] | 
CCCOc1ccc(C(=O)N/N=C/c2ccc(-c3ccc(S(=O)(=O)Nc4ncccn4)cc3)o2)cc1 | inconclusive: 89.1 µM [inhibitor, single point] | 
CCCCCCCCCCCCCCCC[n+]1ccc(C)cc1 | inconclusive: 89.1 µM [inhibitor, single point] | 
O=c1nc2s/c(=C\c3ccc(-c4ccccc4[N+](=O)[O-])o3)c(=O)n2nc1-c1ccccc1 |  | inactive: -3.07%
Cc1ccc(CNC(=O)CCCC(=O)Nc2cc(C)on2)cc1 |  | inactive: -0.582%
O=C(N/N=C/c1cccc(O)c1)c1ccc(-n2cnnn2)cc1 |  | inactive: 0.126%
COC(=O)Cn1c(=NC(=O)c2ccc(S(=O)(=O)N3CCOCC3)cc2)sc2cc(S(N)(=O)=O)ccc21 | inconclusive: 89.1 µM [inhibitor, partial curve, poor fit] | 
COc1ccccc1NC(=O)c1cc2ccccc2o/c1=N\O |  | inactive: -4.82%
O=C1C(=O)N(CC2CCCO2)C(c2ccccc2[N+](=O)[O-])/C1=C(/O)c1ccccc1 (stereo unspecified) | inconclusive: 17.8 µM [inhibitor, partial curve, poor fit] | 
N#Cc1ccsc1NC(=O)COC(=O)CCS(=O)(=O)c1ccccc1 |  | inactive: -2.34%
COc1ccc(-c2cc(C(F)(F)F)c3c(n2)sc2c(O)cc(=O)[nH]c23)c(OC)c1 | inconclusive: 50.1 µM [inhibitor, partial curve] | 
Nc1ccc(/C=C/c2ccnc3ccccc23)c(N)c1 | inconclusive: 89.1 µM [inhibitor, partial curve, poor fit] | 
C(=N\Nc1nc2ccccc2[nH]1)/c1c[nH]c2ccccc12 | inconclusive: 56.2 µM [inhibitor, partial curve, poor fit] | 
CCOC(=O)N1CCN(Cc2ccc(O)c3ncccc23)CC1 | inconclusive: 28.2 µM [inhibitor, partial curve, poor fit] | 
O=C(Nc1cccnc1)c1ccc(Cl)c(S(=O)(=O)N2CCCCCC2)c1 | inconclusive: 89.1 µM [inhibitor, partial curve, poor fit] | 
COc1ccc(NC(=O)c2cccnc2NCCc2ccccc2)cc1 | inconclusive: 56.2 µM [inhibitor, partial curve] | 
COc1cccc(NC(=O)C(OC(=O)c2ccc([N+](=O)[O-])o2)c2ccccc2)c1 (stereo unspecified) | inconclusive: 20 µM [inhibitor, partial curve, poor fit] | 
O=C(Oc1c(Br)cc([N+](=O)[O-])cc1Br)c1cccnc1 |  | inactive: 0.199%
